“And” between values parts separate entries of the source, which are not always exact repeats. Equal values may be shown once. Screen size: about 16,000 compounds; about 40 (0.2%) were called active. Inconclusive results (about 1%) are left out. Calls come from the whole dose curve; as a rule, active = well fitted activation curve with a large enough effect; inconclusive = small, poorly fitted or top-dose-only effect, or another doubt; inactive = no such curve, though single readings can be large or run the other way. This is one part of the list.
% is set by controls: 0 for no effect and ±100 for the full control effect.

This test deals with Rap guanine nucleotide exchange factor 4 (Homo sapiens) (UniProt Q8WZA2). Nature of the test: Validation qHTS for agonist of cAMP-regulated guanine nucleotide exchange factor 4 (EPAC2).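 Note: exchange makes BODIPY-GDP fluorescence drop when released from Rap1B; series mostly up to about 150 µM.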 The following applies: EPAC2 Rap1B BODIPY-GDP exchange, fluorescence; activation: active compounds read high. Summed up: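 Signal normalized against 6.5 mM cAMP as agonist control. Mix of EPAC2 (100 nM), RAP1B-BODIPY-GDP (250 nM) and GDP (50 uM) was read kinetically at 480/540 nm, every 5 min over 30 min, after 5 min room-temperature incubation with compound.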
Sequence of UniProt Q8WZA2 (Q8WZA2 whole entry, looked up): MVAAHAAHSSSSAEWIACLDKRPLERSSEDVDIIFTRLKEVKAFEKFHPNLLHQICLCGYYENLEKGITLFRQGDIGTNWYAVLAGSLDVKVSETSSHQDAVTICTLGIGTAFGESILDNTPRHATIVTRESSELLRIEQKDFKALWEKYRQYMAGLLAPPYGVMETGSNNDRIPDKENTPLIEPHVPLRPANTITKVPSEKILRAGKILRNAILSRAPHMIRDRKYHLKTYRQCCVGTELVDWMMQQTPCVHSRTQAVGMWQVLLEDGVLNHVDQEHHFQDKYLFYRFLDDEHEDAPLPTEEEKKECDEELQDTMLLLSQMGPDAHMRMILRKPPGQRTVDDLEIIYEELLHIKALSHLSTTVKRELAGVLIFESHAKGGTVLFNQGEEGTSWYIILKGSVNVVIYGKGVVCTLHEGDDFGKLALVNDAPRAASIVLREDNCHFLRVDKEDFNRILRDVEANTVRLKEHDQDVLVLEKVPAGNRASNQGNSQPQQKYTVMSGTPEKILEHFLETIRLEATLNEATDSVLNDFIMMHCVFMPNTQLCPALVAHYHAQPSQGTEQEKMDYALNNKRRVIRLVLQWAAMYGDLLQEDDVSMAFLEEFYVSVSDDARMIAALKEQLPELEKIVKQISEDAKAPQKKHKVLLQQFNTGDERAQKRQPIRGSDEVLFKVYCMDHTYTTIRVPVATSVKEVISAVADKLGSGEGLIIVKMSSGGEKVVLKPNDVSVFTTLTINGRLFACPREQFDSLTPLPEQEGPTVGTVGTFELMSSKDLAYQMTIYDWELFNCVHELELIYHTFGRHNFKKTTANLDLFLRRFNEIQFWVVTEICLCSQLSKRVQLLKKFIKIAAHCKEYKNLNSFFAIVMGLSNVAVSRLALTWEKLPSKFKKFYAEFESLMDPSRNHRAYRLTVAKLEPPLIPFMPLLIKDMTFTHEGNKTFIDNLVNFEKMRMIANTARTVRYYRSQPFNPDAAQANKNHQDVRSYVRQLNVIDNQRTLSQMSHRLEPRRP
With `N[C@@H](Cn1cc(I)c(=O)n(Cc2ccc(C(=O)O)cc2)c1=O)C(=O)O`, the activation was inactive: 2.18%.
Turning to `O=C1CC(C(=O)N2CCCC(c3nc(-c4ccncc4)ncc3-c3ccccc3)C2)C2(CCCCC2)O1` (stereo not drawn), the activation was inactive: 0.995%.
Under `CN(C)c1ncc2nc(-c3cc(F)cc(F)c3)c(=O)n(-c3ccccc3)c2n1` stands inactive: 6.71%.
For `O=C1[C@@H]2[C@H]3CC[C@H](C3)[C@@H]2C(=O)N1CCCCN1CCN(c2ncccn2)CC1` the value was inactive: 2.5%.
Under `CC(C)(COP(=O)(O)OP(=O)(O)OC[C@H]1O[C@@H](n2cnc3c(N)ncnc32)[C@H](O)[C@@H]1OP(=O)(O)O)C(O)C(=O)NCCC(=O)NCCS` (stereo partly drawn) stands inactive: -28.5%; under `CC(=O)OCC1=C(C(=O)O)N2C(=O)[C@@H](NC(=O)Cc3cccs3)[C@H]2SC1`, inactive: 8.96% and inactive: -9.97%.
On to `CCn1nc(C)cc1C(=O)NCC1Cc2cc(C)cc(-c3ccccc3C(=O)OC)c2O1` (stereo not drawn), for which the activation is inactive: -13.8%.
Take `CCOc1ccc(NC(=O)CC(C)O)cc1` (stereo not drawn): the activation is inactive: -0.749%.
Under `COc1ccc2[nH]cc(CCNc3ccnc(-c4ccccc4C)n3)c2c1` stands inactive: 4.73%; under `CNC(C)C#Cc1c(-c2cc(OC)c(OC)c(OC)c2)noc1C` (stereo not drawn), inactive: -19.2%.
With `CCN(CC)CCNC(=O)COc1ccc(OC)cc1`, the activation is inactive: -3.45%.
For `Cc1nc2n(c(=O)c1CCN1CCC(c3noc4cc(F)ccc34)CC1)CCCC2O` (stereo not drawn) the value was inactive: 1.22%; for `Cc1cccc(CNc2ncnc3ccc(-c4cccc(NS(C)(=O)=O)c4)cc23)c1`, inactive: 1.39%.
Under `COCCNc1ccnc(-c2cccc(NS(C)(=O)=O)c2)n1` stands inactive: -7.27%; under `OC[C@@H]1O[C@@H](n2cnc3c(N[C@H]4CCC[C@@H]4O)ncnc32)[C@H](O)[C@H]1O`, inactive: -11.6%.
For `COc1ccc(-c2nc3ccc(C4=NNC(=O)CC4C)cc3[nH]2)cc1` (stereo not drawn) the value was inactive: 9.07%.
With `C=CCCCCCCCCC(=O)O`, the activation was inactive: -12.7%.
Consider `CCCN(CCC)C(=O)C(CCC(=O)OCCCN1CCN(CCOC(=O)Cc2c(C)n(C(=O)c3ccc(Cl)cc3)c3ccc(OC)cc23)CC1)NC(=O)c1ccccc1` (stereo not drawn), for which the activation is inactive: -25.7%.
Under `CC1(C)S[C@@H]2[C@H](NC(=O)Cc3ccccc3)C(=O)N2[C@H]1C(=O)O` stands inactive: 3.56%; under `COc1ccc2c(c1)CCC1[C@@H]2CCC2(C)[C@@H](NCCCCCCN3C(=O)C=CC3=O)CC[C@@H]12` (stereo partly drawn), inactive: -18.3%; under `C[C@]12C[C@H](O)CC(CO)(CO)C1[C@H](O)C[C@@]13CC4[C@@H](CC12)[C@@]4(C)C3` (stereo partly drawn), inactive: -23%.
As to `c1ccc2occc2c1`, the activation was inactive: -16.4%.
Under `COc1cc(=O)n2c(c1C(=O)N(C)Cc1nonc1C)CCN(Cc1ccsc1)CC2` stands inactive: -5.57%.
In the case of `CCOC(=O)C1(O)Oc2cc(OC)cc(OC)c2C(=O)C1c1ccccc1` (stereo not drawn), the activation was inactive: -1.3%.
For `COc1c(O)cc2oc3cc(O)c(CC=C(C)C)c(O)c3c(=O)c2c1CC=C(C)C` the value was inactive: 2.42% and inactive: 12.1% and inactive: 2.9%; for `CC(=O)C[C@H]1c2cc(F)cc(F)c2S(=O)(=O)N1C1CCN(Cc2ccccc2)CC1`, inactive: -11.4%.
For `Cc1cnc(CNc2ncncc2-c2cccc(C#N)c2)cn1` the value was inactive: -8.88%.
Under `COc1ccccc1CNc1ccnc(-c2cccc(C#N)c2)n1` stands inactive: -4.49%.
As to `CC[C@H](C)[C@H](NC(=O)[C@H](C)NC(=O)[C@H](CC(N)=O)NC(=O)[C@H](CCCCN)NC(=O)[C@H](Cc1ccccc1)NC(=O)[C@H](CC(C)C)NC(=O)[C@@H](NC(=O)[C@@H](NC(=O)[C@H](CC(C)C)NC(=O)[C@@H]1CCCN1C(=O)[C@@H](NC(=O)[C@H](CCC(N)=O)NC(=O)[C@H](CO)NC(=O)[C@H](CCCCN)NC(=O)[C@H](CCC(=O)O)NC(=O)[C@H](CO)NC(=O)[C@@H](NC(=O)[C@H](CCSC)NC(=O)[C@H](Cc1ccccc1)NC(=O)CNC(=O)CNC(=O)[C@@H](N)Cc1ccc(O)cc1)[C@@H](C)O)[C@@H](C)O)C(C)C)[C@@H](C)O)C(=O)N[C@H](C(=O)N[C@@H](CCCCN)C(=O)N[C@@H](CC(N)=O)C(=O)N[C@@H](C)C(=O)N[C@@H](Cc1ccc(O)cc1)C(=O)N[C@@H](CCCCN)C(=O)N[C@@H](CCCCN)C(=O)NCC(=O)N[C@@H](CCC(=O)O)C(=O)O)[C@@H](C)CC`, the activation was inactive: 6.35%.
As to `CCNc1ncc2nc(-c3cc(F)cc(F)c3)c(=O)n(-c3ccc(OC)cc3)c2n1`, the activation is inactive: -4.69%.
Under `C[n+]1ccccc1/C=N/O` stands inactive: 9.01% and inactive: -5.02%.
For `N#Cc1cccc(NC(=O)N2CC3(CCN(C(=O)c4ccco4)CC3)C2)c1` the value was inactive: -20.1%; for `CC[C@@H](C)[C@H]1O[C@]2(CC[C@@H]1C)C[C@@H]1C[C@H](C/C=C(/C)[C@H](O[C@@H]3C[C@H](OC)[C@H](O[C@@H]4C[C@H](OC)[C@@H](O)[C@H](C)O4)[C@H](C)O3)[C@@H](C)/C=C\C=C3CO[C@@H]4[C@H](O)C(C)=C[C@@H](C(=O)O1)[C@]34O)O2` (tested in a mixture with another compound), inactive: -14.6%; for `Clc1ccccc1-c1ccc2ncnc(NCCN3CCOCC3)c2c1`, inactive: 1.1%.
For `COc1ccc(C(=O)OC2CC3CC[C@H](C2)N3C(C)=O)cc1OC` (stereo partly drawn) the value was inactive: -11.5%.
`CCOc1cc(N)c(Cl)cc1C(=O)NCC1CN(Cc2ccc(F)cc2)CCO1` (stereo not drawn): the activation is inactive: 8.42%.
As to `COc1ccc(-c2cc(C)cc3c2OC(CNC(=O)c2cc(C(C)C)on2)C3)nn1` (stereo not drawn), the activation was inactive: -11%.
For `Cc1cccc(Nc2ccccc2C(=O)O)c1C` the value was inactive: -8.02% and inactive: 7.21%; for `Nc1ccc(/C=C/c2ccc(N)cc2S(=O)(=O)O)c(S(=O)(=O)O)c1`, inactive: 1.01%; for `COc1ccc(/C=C/C(=O)c2cc(O)ccc2O)cc1`, inactive: -8.32%.
Under `Cc1sc2ccccc2[n+]1CCc1ccccc1` stands inactive: -16.1%; under `C=C1C(=O)O[C@@H]2[C@H]3O[C@]3(C)CCC=C(C)CC[C@@H]12`, inactive: -14.3% and inactive: -29%; under `O=C(c1cnccn1)N1CCC[C@@]2(CCN(Cc3ccccc3)C2)C1`, inactive: -6.97%.
For `O=C(Nc1ccccc1)N1CCC2(CC1)CCN(C(=O)c1ccco1)CC2` the value was inactive: -14%.
Regarding `Cc1nc2cnc(Oc3cccc(Cl)c3)nc2n(CCc2ccccc2)c1=O`, the activation is inactive: -11.6%.
For `CN(CCOc1ccc(C[C@H](Nc2ccccc2C(=O)c2ccccc2)C(=O)O)cc1)c1ccccn1`, the activation is inactive: -17.1%.
Under `O=C(CN1Cc2ccccc2OC(c2ccccc2)C1)NCc1cccnc1` (stereo not drawn) stands inactive: -4.28%; under `CC(C)C[C@@H](NC(=O)[C@@H](O)[C@H](N)Cc1ccccc1)C(=O)O`, inactive: -4.49%; under `COc1cc(=O)n2c(c1C(=O)NC(C)c1ccco1)CCN(C(=O)c1ccc3c(c1)OCCO3)CC2` (stereo not drawn), inactive: -2.33%.
Under `CC(N)C(=O)OC(C)(C)Cc1ccc(Cl)cc1` (stereo not drawn) stands inactive: -10.4% and inactive: -23.6%; under `CN(C)C(=O)c1ccc(-c2cncnc2NCCc2cnc[nH]2)cc1`, inactive: -5.85%; under `C=CCSCC=C`, inactive: -1.61%.
Under `O=C(C[n+]1ccncc1)c1ccc2c(c1)CCCC2` stands inactive: -35.4%.
On to `OC1CCC2Cc3ccccc3N=C12` (stereo not drawn), for which the activation was inactive: 8.71%.
For `O=C(O)CCC(=O)C(=O)O` the value was inactive: 2.36%.
As to `Cc1ccsc1C(=CCCN1CCC[C@@H](C(=O)O)C1)c1sccc1C`, the activation was inactive: -18.2%.
Take `O=C(NC1CCC(=O)N(CCOc2ccccc2)CC1)OCc1ccccc1` (stereo not drawn): the activation was inactive: -15.6%.
As to `Cc1ccc(CN2CCOc3ccc(CN4CCC(Oc5cccnc5)CC4)cc3C2)o1`, the activation is inactive: -9.81%.
Under `COC(=O)[C@@H]1CCCN1C(=O)c1cnn(-c2ncc3c(n2)-c2ccccc2CCC3)c1C1CC1` stands inactive: -5.26%; under `CC[C@@](N)(C(=O)O)c1ccc(C(=O)O)cc1`, inactive: -22.1%.
As for `CCOC(=O)CN[C@@H](C(=O)N1CC[C@H]1C(=O)NCc1ccc(/C(N)=N/O)cc1)C1CCCCC1`, the activation was inactive: 2.24%.
Under `COc1ccc(NC(=O)N2CC3(CCN(S(C)(=O)=O)CC3)C2)cc1` stands inactive: -2.4%; under `O=C(c1cnccn1)N1CCC2(CC1)CN(Cc1nccs1)C2`, inactive: 0.907%.
Take `COCC(=O)Nc1cc(C(=O)N2CCCC(C(N)=O)C2)cc2nc(-c3ccccc3)n(C)c12` (stereo not drawn): the activation is inactive: -16.7%.
For `O=C1OC(CN2CCOCC2)CN1/N=C/c1ccc([N+](=O)[O-])o1` (stereo not drawn), the activation was inactive: -1.25%.
For the molecule `COc1ccc(Oc2ncc3nc(-c4cccc(C#N)c4)c(=O)n(C)c3n2)cc1`, the activation was inactive: -5.66%.
Under `CC1=C(/C=C/C(C)=C/C=C/C(C)=C/C=C/C=C(C)/C=C/C=C(C)/C=C/C2=C(C)C[C@@H](O)CC2(C)C)C(C)(C)C[C@H](O)C1` stands inactive: -28.3%; under `COc1ccc(-c2ccc(C(=O)N(C)Cc3csc(C)n3)c(N3CCC(N4CCc5ccccc5C4)CC3)n2)cc1`, inactive: 2.21%.
Consider `N#Cc1cccc(-c2nc(NCc3cccs3)c3ccccc3n2)c1`, for which the activation is inactive: -44.8%.
For `Cc1nc2cnc(Nc3ccccc3)nc2n(C)c1=O`, the activation is inactive: 6.36%.
Consider `CC(=O)c1ccc(-c2ccc3c4c(ccc3c2)OC(CNC(=O)C(C)N2CCOCC2)C4)s1` (stereo not drawn), for which the activation is inactive: -12.1%.
For `COCCCNc1ncnc2sc(C(=O)N3CCCCC3)c(C)c12` the value was inactive: -4.74%; for `COCc1c(C(=O)NCC2CCCN(C)C2)cnn1-c1ncc2c(n1)-c1ccccc1CCC2` (stereo not drawn), inactive: -0.582%.

Source of the values: PubChem BioAssay AID1645887 (National Center for Advancing Translational Sciences (NCATS), 2021).
